# Target: NR1/NR2B (Rattus norvegicus, UniProt P35439+Q00960)
# Conditions: for mean within the shaded area (criteria for improved drug performance) for NR1/NR2B: FIG. 1; for criteria for selection as an effective compound for therapeutic use (potency boost at least 5 and at least 30% decrease in infarct volume): as indicated in FIG. 1
SMILES,mean within the shaded area (criteria for improved drug performance) for NR1/NR2B,criteria for selection as an effective compound for therapeutic use (potency boost at least 5 and at least 30% decrease in infarct volume)
CCCCN(CCc1ccc(Cl)c(Cl)c1)C[C@H](O)COc1ccc(NS(C)(=O)=O)cc1 [Compound 93-31],fall within the shaded area,falls within the criteria for selection
CS(=O)(=O)Nc1ccc(OC[C@H](O)CN(CCc2ccc(Cl)c(Cl)c2)Cc2ccccc2O)cc1 [Compound 93-40],,do not fall within the criteria for selection
CS(=O)(=O)Nc1ccc(OC[C@@H](O)CN(CCO)CCc2ccc(Cl)c(Cl)c2)cc1 [Compound 93-8],,falls within the criteria for selection
CS(=O)(=O)Nc1ccc(OCC(O)CN(CCc2ccc(Cl)c(Cl)c2)Cc2cccc(O)c2)cc1 (stereo not shown) [Compound 93-41],fall within the shaded area,falls within the criteria for selection
CC(C)CN(CCc1ccc(Cl)c(Cl)c1)C[C@H](O)COc1ccc(NS(C)(=O)=O)cc1 [Compound 93-97],,does not fall within the criteria for selection
"C[C@@]12N[C@@H](Cc3ccccc31)c1ccccc12 [(−)MK801, reference compound]",,falls within the criteria for selection
CCN(CCc1ccc(Cl)c(Cl)c1)C[C@H](O)COc1ccc(NS(C)(=O)=O)cc1 [Compound 93-5],fall within the shaded area,falls within the criteria for selection
CS(=O)(=O)Nc1ccc(OC[C@@H](O)CNCCc2ccc(Cl)c(Cl)c2)cc1 [Compound 93-4],fall within the shaded area,falls within the criteria for selection
CS(=O)(=O)Nc1ccc(OC[C@@H](O)CN(CCc2ccc(Cl)c(Cl)c2)Cc2ccccc2O)cc1 [Compound 93-43],,do not fall within the criteria for selection

# From patent US20060199864A1, “Selection of pH-dependent compounds for in vivo therapy” (priority 2004, published 2006)
